# Results taken from the supplement of paper PMC8728848.
# The other results are listed elsewhere or left out.
# Columns and labels:
# Test in all cases: glycan array binding signal (z-score within array); higher = stronger binding
# Settings in all cases: glycan notation: IUPAC condensed, linker removed
# [1] = target: Neu5Ac(a2-3)Gal(b1-3)GlcNAc6S
# Outline: (§1)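 Glycan array data were curated from 3228 arrays in the Consortium for Functional Glycomics database and kept only where the protein sequence was available. Glycan names were converted to IUPAC-condensed notation, and columns mapping to the same glycan were averaged. The binding signal is a within-array Z-score, averaged across arrays of the same protein sequence at different concentrations or buffers and across linkers. Negative Z-scores can be read as non-binding.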
# [2] = target: Neu5Ac(a2-3)Gal(b1-3)[Fuc(a1-4)]GlcNAc
# Outline: as §1
# [3] = target: Neu5Ac(a2-3)Gal(b1-3)[Fuc(a1-4)]GlcNAc(b1-3)Gal(b1-4)[Fuc(a1-3)]GlcNAc
# Outline: as §1
# [4] = target: Neu5Ac(a2-3)Gal(b1-3)[Neu5Ac(a2-3)Gal(b1-4)]GlcNAc
# Outline: as §1
# [5] = target: Neu5Ac(a2-3)Gal(b1-3)[Neu5Ac(a2-6)]GalNAc
# Outline: as §1
# Neu5Ac(a2-3)Gal(b1-4)Glc = target: Neu5Ac(a2-3)Gal(b1-4)Glc
# Outline: as §1
# [6] = target: Neu5Ac(a2-3)Gal(b1-4)GlcNAc
# Outline: as §1
# [7] = target: Neu5Ac(a2-3)Gal(b1-4)GlcNAc(b1-2)Man(a1-3)[GlcNAc(b1-2)Man(b1-4)GlcNAc(b1-2)Man(a1-6)]Man(b1-4)GlcNAc(b1-4)GlcNAc
# Outline: as §1
# [8] = target: Neu5Ac(a2-3)Gal(b1-4)GlcNAc(b1-2)Man(a1-3)[Neu5Ac(a2-6)Gal(b1-4)GlcNAc(b1-2)Man(a1-6)]Man(b1-4)GlcNAc(b1-4)GlcNAc
# Outline: as §1
# [9] = target: Neu5Ac(a2-3)Gal(b1-4)GlcNAc(b1-3)Gal(b1-3)GlcNAc
# Outline: as §1
# [10] = target: Neu5Ac(a2-3)Gal(b1-4)GlcNAc(b1-3)Gal(b1-4)GlcNAc
# Outline: as §1
# [11] = target: Neu5Ac(a2-3)Gal(b1-4)GlcNAc(b1-3)Gal(b1-4)GlcNAc(b1-3)Gal(b1-4)GlcNAc
# Outline: as §1
# [12] = target: Neu5Ac(a2-3)Gal(b1-4)GlcNAc(b1-3)Gal(b1-4)[Fuc(a1-3)]GlcNAc
# Outline: as §1
# [13] = target: Neu5Ac(a2-3)Gal(b1-4)GlcNAc(b1-6)[Gal(b1-3)]GalNAc
# Outline: as §1
# [14] = target: Neu5Ac(a2-3)Gal(b1-4)GlcNAc(b1-6)[Neu5Ac(a2-3)Gal(b1-3)]GalNAc
# Outline: as §1
# [15] = target: Neu5Ac(a2-3)Gal(b1-4)GlcNAc6S
# Outline: as §1
# [16] = target: Neu5Ac(a2-3)Gal(b1-4)[Fuc(a1-3)]GlcNAc
# Outline: as §1
# [17] = target: Neu5Ac(a2-3)Gal(b1-4)[Fuc(a1-3)]GlcNAc(b1-3)Gal
# Outline: as §1
# [18] = target: Neu5Ac(a2-3)Gal(b1-4)[Fuc(a1-3)]GlcNAc(b1-3)Gal(b1-4)GlcNAc
# Outline: as §1
# [19] = target: Neu5Ac(a2-3)Gal(b1-4)[Fuc(a1-3)]GlcNAc(b1-3)Gal(b1-4)[Fuc(a1-3)]GlcNAc(b1-3)Gal(b1-4)[Fuc(a1-3)]GlcNAc
# Outline: as §1
# [20] = target: Neu5Ac(a2-3)Gal(b1-4)[Fuc(a1-3)]GlcNAc(b1-6)[Gal(b1-3)]GalNAc
# Outline: as §1
# [21] = target: Neu5Ac(a2-3)Gal(b1-4)[Fuc(a1-3)]GlcNAc6S
# Outline: as §1
# [22] = target: Neu5Ac(a2-3)Gal6S(b1-4)GlcNAc
# Outline: as §1
# [23] = target: Neu5Ac(a2-3)Gal6S(b1-4)[Fuc(a1-3)]GlcNAc
# Outline: as §1
# Neu5Ac(a2-3)GalNAc = target: Neu5Ac(a2-3)GalNAc
# Outline: as §1
# [24] = target: Neu5Ac(a2-3)GalNAc(b1-4)GlcNAc
# Outline: as §1
# [25] = target: Neu5Ac(a2-3)[GalNAc(b1-4)]Gal(b1-4)Glc
# Outline: as §1
# [26] = target: Neu5Ac(a2-3)[GalNAc(b1-4)]Gal(b1-4)GlcNAc
# Outline: as §1
# [27] = target: Neu5Ac(a2-3)[Neu5Ac(a2-6)]GalNAc
# Outline: as §1
# Neu5Ac(a2-6)Gal = target: Neu5Ac(a2-6)Gal
# Outline: as §1
# Neu5Ac(a2-6)Gal(b1-4)Glc = target: Neu5Ac(a2-6)Gal(b1-4)Glc
# Outline: as §1
# [28] = target: Neu5Ac(a2-6)Gal(b1-4)GlcNAc
# Outline: as §1
# [29] = target: Neu5Ac(a2-6)Gal(b1-4)GlcNAc(b1-2)Man(a1-3)[Gal(b1-4)GlcNAc(b1-2)Man(a1-6)]Man(b1-4)GlcNAc(b1-4)GlcNAc
# Outline: as §1
# [30] = target: Neu5Ac(a2-6)Gal(b1-4)GlcNAc(b1-2)Man(a1-3)[GlcNAc(b1-2)Man(a1-6)]Man(b1-4)GlcNAc(b1-4)GlcNAc
# Outline: as §1
# [31] = target: Neu5Ac(a2-6)Gal(b1-4)GlcNAc(b1-2)Man(a1-3)[GlcNAc(b1-2)Man(b1-4)GlcNAc(b1-2)Man(a1-6)]Man(b1-4)GlcNAc(b1-4)GlcNAc
# Outline: as §1
# [32] = target: Neu5Ac(a2-6)Gal(b1-4)GlcNAc(b1-2)Man(a1-3)[Neu5Ac(a2-6)Gal(b1-4)GlcNAc(b1-2)Man(a1-6)]Man(b1-4)GlcNAc(b1-4)GlcNAc
# Outline: as §1
# [33] = target: Neu5Ac(a2-6)Gal(b1-4)GlcNAc(b1-2)Man(a1-6)[Gal(b1-4)GlcNAc(b1-2)Man(a1-3)]Man(b1-4)GlcNAc(b1-4)GlcNAc
# Outline: as §1
# [34] = target: Neu5Ac(a2-6)Gal(b1-4)GlcNAc(b1-2)Man(a1-6)[GlcNAc(b1-2)Man(a1-3)]Man(b1-4)GlcNAc(b1-4)GlcNAc
# Outline: as §1
# [35] = target: Neu5Ac(a2-6)Gal(b1-4)GlcNAc(b1-3)Gal(b1-4)GlcNAc
# Outline: as §1
# [36] = target: Neu5Ac(a2-6)Gal(b1-4)GlcNAc(b1-3)Gal(b1-4)[Fuc(a1-3)]GlcNAc(b1-3)Gal(b1-4)[Fuc(a1-3)]GlcNAc
# Outline: as §1
# [37] = target: Neu5Ac(a2-6)Gal(b1-4)GlcNAc6S
# Outline: as §1
# Neu5Ac(a2-6)GalNAc = target: Neu5Ac(a2-6)GalNAc
# Outline: as §1
# [38] = target: Neu5Ac(a2-6)GalNAc(b1-4)GlcNAc
# Outline: as §1
# Neu5Ac(a2-8)Neu5Ac = target: Neu5Ac(a2-8)Neu5Ac
# Outline: as §1
# [39] = target: Neu5Ac(a2-8)Neu5Ac(a2-3)Gal(b1-4)Glc
# Outline: as §1
# [40] = target: Neu5Ac(a2-8)Neu5Ac(a2-3)[GalNAc(b1-4)]Gal(b1-4)Glc
# Outline: as §1
# [41] = target: Neu5Ac(a2-8)Neu5Ac(a2-8)Neu5Ac
# Outline: as §1
# [42] = target: Neu5Ac(a2-8)Neu5Ac(a2-8)Neu5Ac(a2-3)Gal(b1-4)Glc
# Outline: as §1
# [43] = target: Neu5Ac(a2-8)Neu5Ac(a2-8)Neu5Ac(a2-3)[GalNAc(b1-4)]Gal(b1-4)Glc
# Outline: as §1
# [44] = target: Neu5Ac(a2-8)Neu5Ac(a2-8)Neu5Ac(a2-8)Neu5Ac(a2-3)[GalNAc(b1-4)]Gal(b1-4)Glc
# Outline: as §1
# [45] = target: Neu5Ac(b2-6)Gal(b1-4)GlcNAc
# Outline: as §1
# Neu5Ac(b2-6)GalNAc = target: Neu5Ac(b2-6)GalNAc
# Outline: as §1
# [46] = target: Neu5Ac9Ac(a2-6)Gal(b1-4)GlcNAc
# Outline: as §1
# [47] = target: Neu5Gc(a2-3)Gal(b1-3)GlcNAc
# Outline: as §1
# [48] = target: Neu5Gc(a2-3)Gal(b1-3)[Fuc(a1-4)]GlcNAc
# Outline: as §1
# Neu5Gc(a2-3)Gal(b1-4)Glc = target: Neu5Gc(a2-3)Gal(b1-4)Glc
# Outline: as §1
# [49] = target: Neu5Gc(a2-3)Gal(b1-4)GlcNAc
# Outline: as §1
# [50] = target: Neu5Gc(a2-3)Gal(b1-4)[Fuc(a1-3)]GlcNAc
# Outline: as §1
# [51] = target: Neu5Gc(a2-6)Gal(b1-4)GlcNAc
# Outline: as §1
# Neu5Gc(a2-6)GalNAc = target: Neu5Gc(a2-6)GalNAc
# Outline: as §1
# [52] = target: Neu5Gc(b2-6)Gal(b1-4)GlcNAc
# Outline: as §1
binder,measurement,setting,value
TbCVNHOb (Tuber borchii) (protein) MSFYASSEDVRTIEEGGRTWLVGRARRADGSWQDIKLDLDNIIGNRDGHLTWGEQNFTQSASDIRFNFEGGSNVPVLRAKLRNAAGGEQESDLNLGERLTNNNGDLVFN,glycan array binding signal (z-score),[1],-0.117
same,glycan array binding signal (z-score),[2],-0.255
same,glycan array binding signal (z-score),[3],0.391
same,glycan array binding signal (z-score),[4],-0.292
same,glycan array binding signal (z-score),[5],-0.103
same,glycan array binding signal (z-score),Neu5Ac(a2-3)Gal(b1-4)Glc,-0.074
same,glycan array binding signal (z-score),[6],-0.286
same,glycan array binding signal (z-score),[7],-0.16
same,glycan array binding signal (z-score),[8],0.237
same,glycan array binding signal (z-score),[9],-0.07
same,glycan array binding signal (z-score),[10],-0.383
same,glycan array binding signal (z-score),[11],-0.237
same,glycan array binding signal (z-score),[12],-0.263
same,glycan array binding signal (z-score),[13],-0.328
same,glycan array binding signal (z-score),[14],-0.18
same,glycan array binding signal (z-score),[15],-0.266
same,glycan array binding signal (z-score),[16],-0.274
same,glycan array binding signal (z-score),[17],-0.215
same,glycan array binding signal (z-score),[18],0.292
same,glycan array binding signal (z-score),[19],-0.228
same,glycan array binding signal (z-score),[20],-0.124
same,glycan array binding signal (z-score),[21],-0.172
same,glycan array binding signal (z-score),[22],-0.274
same,glycan array binding signal (z-score),[23],-0.293
same,glycan array binding signal (z-score),Neu5Ac(a2-3)GalNAc,-0.303
same,glycan array binding signal (z-score),[24],-0.296
same,glycan array binding signal (z-score),[25],-0.379
same,glycan array binding signal (z-score),[26],-0.165
same,glycan array binding signal (z-score),[27],-0.328
same,glycan array binding signal (z-score),Neu5Ac(a2-6)Gal,-0.075
same,glycan array binding signal (z-score),Neu5Ac(a2-6)Gal(b1-4)Glc,-0.055
same,glycan array binding signal (z-score),[28],-0.27
same,glycan array binding signal (z-score),[29],-0.15
same,glycan array binding signal (z-score),[30],-0.169
same,glycan array binding signal (z-score),[31],-0.008
same,glycan array binding signal (z-score),[32],-0.103
same,glycan array binding signal (z-score),[33],-0.129
same,glycan array binding signal (z-score),[34],-0.131
same,glycan array binding signal (z-score),[35],-0.156
same,glycan array binding signal (z-score),[36],0.016
same,glycan array binding signal (z-score),[37],-0.275
same,glycan array binding signal (z-score),Neu5Ac(a2-6)GalNAc,-0.28
same,glycan array binding signal (z-score),[38],-0.347
same,glycan array binding signal (z-score),Neu5Ac(a2-8)Neu5Ac,-0.137
same,glycan array binding signal (z-score),[39],-0.392
same,glycan array binding signal (z-score),[40],-0.26
same,glycan array binding signal (z-score),[41],-0.347
same,glycan array binding signal (z-score),[42],-0.118
same,glycan array binding signal (z-score),[43],-0.317
same,glycan array binding signal (z-score),[44],-0.228
same,glycan array binding signal (z-score),[45],-0.31
same,glycan array binding signal (z-score),Neu5Ac(b2-6)GalNAc,-0.314
same,glycan array binding signal (z-score),[46],-0.117
same,glycan array binding signal (z-score),[47],-0.289
same,glycan array binding signal (z-score),[48],-0.36
same,glycan array binding signal (z-score),Neu5Gc(a2-3)Gal(b1-4)Glc,-0.12
same,glycan array binding signal (z-score),[49],-0.231
same,glycan array binding signal (z-score),[50],-0.197
same,glycan array binding signal (z-score),[51],-0.266
same,glycan array binding signal (z-score),Neu5Gc(a2-6)GalNAc,-0.275
same,glycan array binding signal (z-score),[52],-0.171
